# Laboratory results: PMC12147205, “Soybean Lectin Cross-Links Membranes by Binding Sulfatide in a Curvature-Dependent Manner” (Journal of Agricultural and Food Chemistry, 2025)
# Target: the molecule itself
# Experiment: native gel or EMSA; 4 uM purified lectin in 50 mM HEPES pH 7.4, 140 mM NaCl, room temperature, with or without 20 mM GalNAc for 1 h; 10% native gel
protein,measurement,value
"soybean lectin (natural protein, soybean (Glycine max), UniProt P05046 33-285, looked up, also called soybean meal lectin; agglutinin; source: purified from soybean meal (GalNAc beads, eluted with galactose; Superdex 200 gel filtration)) AETVSFSWNKFVPKQPNMILQGDAIVTSSGKLQLNKVDENGTPKPSSLGRALYSTPIHIWDKETGSVASFAASFNFTFYAPDTKRLADGLAFFLAPIDTKPQTHAGYLGLFNENESGDQVVAVEFDTFRNSWDPPNPHIGINVNSIRSIKTTSWDLANNKVAKVLITYDASTSLLVASLVYPSQRTSNILSDVVDLKTSLPEWVRIGFSAATGLDIPGESHDVLSWSFASNLPHASSNIDPLDLTSFVLHEAI",stoichiometry N,4
